Test results: PubChem BioAssay AID1458 (National Center for Advancing Translational Sciences (NCATS), 2008)
In all, about 210,000 compounds went through this assay and about 5,900 (2.8%) were called active. This list was built around the results that the source calls inconclusive (neither active nor inactive); the mix of calls is not that of the screen. Calls come from the whole dose curve; as a rule, active = well fitted activation curve with a large enough effect; inconclusive = small, poorly fitted or top-dose-only effect; inactive = no such curve, though single readings can be large or run the other way. A potency beside an inconclusive call is a rough fit, not a confirmed value.

Assay: qHTS Assay for Enhancers of SMN2 Splice Variant Expression; note: nearly all actives have a fitted effect of over 55% in size
Conditions: HEK293 SMN2-luciferase splicing reporter, luminescence, 30-36 h; series mostly up to 46.1 µM
How it was run: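 HEK293 cells carry an SMN2 minigene-luciferase reporter in which exon 7 inclusion puts luciferase in frame. Cells were seeded at 2000 cells/well, attached for 10-12 hours, then exposed to compounds for 30-36 hours at 37C before ONE-Glo luminescence.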
Potency is the fitted concentration of half-maximal effect; tags give direction and shape of the fitted curve.

Row | Structure (SMILES) | Potency
1 | CC(=O)N1c2c(cc(Br)cc2S(=O)(=O)N2CCN(c3cccc(Cl)c3)CC2)CC1C (stereo unspecified) | inactive
2 | COc1cccc(-c2nc(-c3ccc4c(c3)NC(=O)CO4)cs2)c1 | inconclusive: 12.6 µM [activator, single point]
3 | c1ccc(-c2nnc(CSc3nncs3)o2)cc1 | inconclusive: 15.8 µM [activator, partial curve, poor fit]
4 | O=C(Cc1cccs1)Nc1cccc(-c2nc3ccccc3[nH]2)c1 | inconclusive: 11.2 µM [activator, single point]
5 | COc1ccc(C2=NC(C)(C)N(CC(=O)Nc3cc(OC)cc(OC)c3)C2=O)cc1 | inconclusive: 0.0032 µM [activator, full curve]
6 | CCN1CCN(c2cc(C)c3cc(NC(=O)/C=C/c4cccc(OC)c4OC)ccc3n2)CC1 | inconclusive: 35.5 µM [activator, single point]
7 | CCOc1ccc2nc(N3CCCC(C(=O)N4CCN(CC)CC4)C3)sc2c1 (stereo unspecified) | inconclusive: 35.5 µM [activator, single point]
8 | CCOc1ccc(NC(=O)Nc2cc3c(cc2N2CCCCC2)n(C)c(=O)n3C)cc1 | inactive
9 | O=C(NCCN1C(=O)C2C3C=CC(C3)C2C1=O)Nc1ccc(Br)cc1 (stereo unspecified) | active: 11.2 µM
10 | COc1ccc(C)cc1Nc1cc(C)nc2nc(C)nn12 | inconclusive: 15.8 µM [activator, partial curve]
11 | Cc1ccc2nc(-c3ccc(NC(=O)COc4ccccc4C(C)(C)C)cc3)sc2c1 | inconclusive: 15.8 µM [activator, single point]
12 | CC(C)Cc1ccc(/C=C/C(=O)N2CCCCC2)cc1 | active: 11.2 µM
13 | CCOC(=O)C1CCCN(c2cc(C)nc3cc(-c4ccc(Cl)cc4)nn23)C1 (stereo unspecified) | inconclusive: 14.1 µM [activator, partial curve]
14 | O=C(NCc1ccccc1)NC1(C(=O)Nc2ccc3c(c2)OCCO3)CCCCC1 | inconclusive: 35.5 µM [activator, single point]
15 | COc1ccc2c(c1)C(=O)c1ccccc1CO2 | inconclusive: 11.2 µM [activator, partial curve, poor fit]
16 | O=C(Nc1ccc2c(c1)OCCO2)N1CCN(c2ccccc2)CC1 | inactive
17 | Cc1ccc(Nc2c(-c3cccnc3)nc3ccc(Cl)cn23)cc1 | inactive
18 | COc1ccc2cc(CCNS(=O)(=O)c3ccc(C)cc3)c(=O)[nH]c2c1 | inactive
19 | CC1CCC(NC(=O)CN2C(=O)C3CCCN3c3ncc(Cl)cc32)CC1 (stereo unspecified) | inconclusive: 0.0035 µM [activator, full curve, poor fit]
20 | COc1ccccc1CNC(=O)CSc1ccc(Br)cc1 | inconclusive: 5.62 µM [activator, single point]
21 | Cc1ccc2c(c1)Cc1c(nc(-c3ccc(F)cc3)nc1SCC(=O)N1CCCCC1)O2 | inactive
22 | CCC1(CC)C(=O)C(C)(C)C(=O)OC1c1ccccn1 (stereo unspecified) | inconclusive: 12.6 µM [activator, single point]
23 | O=C(CSc1nc2ccccc2s1)NCCOc1ccccc1 | inconclusive: 20 µM [activator, single point]

Row | Structure (SMILES) | Potency
24 | CC(C)CC(=O)NC(=S)Nc1ccccc1C(=O)Nc1ccccc1 | inconclusive: 10 µM [activator, partial curve, poor fit]
25 | O=C(NCCN1CCOCC1)Nc1ccc(Cl)cc1Cl | inconclusive: 11.2 µM [activator, partial curve, poor fit]
26 | COc1ccc(S(=O)(=O)NC2CCCCC2)c(C)c1C | inconclusive: 2.82 µM [activator, single point]
27 | COCC(=O)N/N=C(\C)CC(=O)NCc1ccco1 | inactive
28 | O=C(Nc1cccc(NC(=O)c2cccs2)c1)c1ccco1 | inconclusive: 1.41 µM [activator, full curve, poor fit]
29 | CC(=O)Nc1ccccc1OCc1nnc(-c2ccc(Cl)cc2)o1 | inconclusive: 35.5 µM [activator, single point]
30 | COC(=O)c1ccc2c(=O)n(Cc3ccc(C(=O)NC(C)C)cc3)c(=S)[nH]c2c1 | inconclusive: 0.01 µM [activator, full curve, poor fit]
31 | COc1ccc(-c2nnc(SCC(=O)c3ccc[nH]3)o2)cc1 | active: 8.91 µM
32 | COc1ccc(N(C)S(=O)(=O)c2cccc(C(=O)OC(C(=O)Nc3cc(C)cc(C)c3)c3ccccc3)c2)cc1 (stereo unspecified) | active: 15.8 µM
33 | CC(NC(=O)C1CCC1)c1ccc(Cl)cc1 (stereo unspecified) | inconclusive: 2.51 µM [activator, partial curve, poor fit]
34 | C#CCSc1nnc(-c2ccc(C)cc2)o1 | active: 12.6 µM
35 | CCCCOC(=O)c1ccc(NC(=O)C(CCS(C)(=O)=O)NC(C)=O)cc1 (stereo unspecified) | inconclusive: 0.0316 µM [activator, full curve, poor fit]
36 | Cc1ccc(/C=C/C(=O)Nc2ncc(C)s2)o1 | active: 3.16 µM
37 | COC(=O)CSc1ccc2c(N)c(C(=O)OC)sc2c1 | inconclusive: 6.31 µM [activator, single point]
38 | O=C(Nc1cccc(-c2cn3ccccc3n2)c1)c1ccccc1 | inconclusive: 25.1 µM [activator, partial curve, poor fit]
39 | C=CCNc1nc(NC(C)(C)CO)nc(OCC)n1 | inactive
40 | Cc1cc(Nc2ccc3c(c2)OCCO3)c2cccc(C)c2n1 | inconclusive: 2.24 µM [activator, single point]
41 | Cc1cc(C)c2oc(-c3ccc(C)c(NC(=O)/C=C/c4ccco4)c3)nc2c1 | inactive
42 | Nc1nc(C2CC2)c(Sc2sc(N)nc2C2CC2)s1 | active: 15.8 µM
43 | COc1ccc(NC(=O)Cc2c(F)cccc2Cl)cc1 | inconclusive: 11.2 µM [activator, partial curve, poor fit]
44 | Nc1nccc(/C=C/c2c(F)cccc2Cl)n1 | inconclusive: 11.2 µM [activator, partial curve]
45 | COc1ccc(-c2csc(-c3cccs3)n2)cc1OC | active: 14.1 µM
46 | COc1ccc(NC(=O)Nc2ccccc2C(=O)N2CCCC2)cc1 | inconclusive: 10 µM [activator, partial curve]
